Some of the results follow. The main result of the screen is listed elsewhere. These columns were measured beside it and carry no call. Most of these compounds were active or inconclusive in the main read-out, so they are no random draw.

This assay in a line: growth inhibition of WT strain, primary screen, mitochondrial fusion inhibitor project, WT and mutant strains, chemical genetic (AID 1362). Also: tested in S. cerevisiae. The following applies: mitochondrial fusion phenotypic screen, at 10 µM.
What is called inhibition is the change of the read-out against control, counted positive when it falls. `Cc1ccc(C(C(=O)NC(C)(C)C)N(Cc2cccs2)C(=O)c2ccc3c(c2)OCCO3)cc1` (stereo not given): the inhibition is 22.6%.

For the compound `COc1cccc(N2CCN(c3ncnc4c3[nH]c3ccc(F)cc34)CC2C)c1` (stereo not given), the inhibition was 72.7%.

`CCCCNCC#CCOc1cc(C)ccc1C(C)C`: the inhibition was found to be 61.2%.

On to `CC1=NN(c2ccc(C)cc2C)C(=O)C1C(c1ccccc1)C1C(=O)N(c2ccc(C)cc2C)N=C1C` (stereo not given), for which the inhibition is -1.61%.

Consider `O=C(Nc1ccc2c(c1)nc1n2CCN(Cc2ccccc2)C1)c1cccs1`, for which the inhibition is -11.9%.

Consider `Cc1nc2ccc(NC(=O)c3nn(CC(C)C)c(=O)c4ccccc34)cc2s1`, for which the inhibition was -2.73%.

For `Cc1cccc(OCCCC(=O)Nc2ccc(N3CCCCC3)cc2)c1C`, the inhibition was found to be 24.3%.

Take `COC(=O)c1cc(NC(=S)Nc2cc(Cl)cc(Cl)c2)cc(C(=O)OC)c1`: the inhibition came to 61.1%.

`Cc1cc(C)nc(Nc2n[nH]c(-c3ccc(N)cc3)n2)n1`: the inhibition is 17.5%.

Take `Cc1ccc2sc(N(CCCN(C)C)C(=O)c3nc4ccccc4s3)nc2c1C`: the inhibition amounted to 36.9%.

For the compound `COc1ccccc1-c1cc(C(F)(F)F)nc(NCc2cccs2)n1`, the inhibition is -5.43%.

Take `COc1ccc(Nc2nc(NC(C)(C)C)nc(N3CCCC3)n2)c(OC)c1`: the inhibition is 67.7%.

Turning to `O=C(NCc1ccc2c(c1)OCO2)c1ccc(-c2ccc(Cl)cc2)o1`, the inhibition was determined as 37.9%.

For the compound `CC1CCN(c2ccccc2NC(=O)c2ccc(F)cc2)CC1`, the inhibition was found to be 46.6%.

Regarding `CCCOP(=O)(OCCC)C(Nc1cccc(C(F)(F)F)c1)c1ccc(C)cc1` (stereo not given), the inhibition came out at 22.5%.

As to `Cc1ccccc1NS(=O)(=O)c1ccc(NC(=O)CSCc2ccc(Br)cc2)cc1`, the inhibition is 25.8%.

In the case of `Cc1oc2c(c1C(=O)NCc1cccnc1)C(=O)c1ccccc1C2=O`, the inhibition was 87.5%.

On to `O=C1C(Cl)=C(NC2CCCCC2)C(=O)N1Cc1ccccc1`, for which the inhibition is -5.4%.

As for `Clc1ccc(/C=N/NC(=Nc2ccccc2)c2ccccn2)c(Cl)c1`, the inhibition came out at 73.6%.

As for `Cc1ccc(-n2cc(CN3CCC(CO)(Cc4cccc(C(F)(F)F)c4)CC3)cn2)cc1`, the inhibition came to 88.3%.

On to `CCOc1ccc(CSCCNC(=S)Nc2ccccc2)cc1`, for which the inhibition turned out to be 54%.

For `N=c1c2c(n(Cc3ccc(F)cc3)c3c1CCC3)CCC2`, the inhibition was 20.5%.

Consider `O=C(Nc1cccc(F)c1)c1ccc(-c2ccccc2Cl)o1`, for which the inhibition came to 46.5%.

Consider `COc1ccc(Nc2nc(C)c(-c3ccccc3)s2)cc1`, for which the inhibition came out at 13.7%.

For the compound `Cc1ccc(C(=O)NCc2ccc(N3CCN(C(=O)OC(C)(C)C)CC3)cc2)cc1`, the inhibition came out at 4.38%.

Turning to `O=C(NC(=S)Nc1ccc(Cl)cn1)C12CC3CC(CC(C3)C1)C2`, the inhibition was 40.5%.

Turning to `Cc1cc(C)n(-c2nc(C)nc3c2cnn3-c2ccccc2)n1`, the inhibition was 2.55%.

Take `Cc1ccc2cc(/C=N/Nc3nc4ccccc4[nH]3)c(Cl)nc2c1`: the inhibition is 45.3%.

Consider `Cc1nc(N(C)Cc2ccccc2)c2nnn(Cc3ccccc3)c2n1`, for which the inhibition amounted to 48.1%.

`O=C(NNc1ccc(C2CCCCC2)cc1)C(O)(c1ccccc1)c1cccs1` (stereo not given): the inhibition came to 83.6%.

Take `OC(COc1ccc2ccccc2c1Br)Cn1cnc(-c2ccccc2)c1` (stereo not given): the inhibition is 70%.

As to `CCCc1nc(SCC(=O)N2CCCc3ccccc32)c2c(=O)n(C)c(=O)n(C)c2n1`, the inhibition is 26.7%.

`COC(=O)CN1C(c2ccc(Cl)cc2)=Nc2ccc(Cl)cc2C1c1ccccc1` (stereo not given): the inhibition was found to be 34.3%.

On to `CCCNC(=S)N1CCN(C(c2ccccc2)c2ccccc2)CC1`, for which the inhibition stood at 34.6%.

Turning to `Cc1cccc(C)c1NC(=O)CN(C)CC(=O)Nc1ccccc1Br`, the inhibition stood at 16.7%.

Turning to `CCOP(=O)(OCC)C(Nc1cccc(C(F)(F)F)c1)c1ccc(Br)cc1` (stereo not given), the inhibition is -2.21%.

`Cc1nc(-c2ccccc2)sc1-c1nc(-c2ccncc2)ncc1S(=O)(=O)c1ccccc1`: the inhibition was 11.3%.

With `Cc1cccc(Nc2nc(NCc3ccco3)c3ccccc3n2)c1`, the inhibition came out at 94%.

On to `O=c1[nH]ncc(N2CCN(C(c3ccccc3)c3ccccc3)CC2)c1Cl`, for which the inhibition came out at 36.2%.

With `CCOC(=O)c1cnc2ccc(OC)cc2c1Nc1ccc2c(c1)OCCO2`, the inhibition amounted to 58.6%.

With `O=C(Nc1ccccc1C(=O)N/N=C/c1ccncc1)c1ccccc1`, the inhibition was 73.5%.

For `NC(=S)N/N=C/c1ccccc1OCCSc1ccc(Cl)cc1`, the inhibition came to 8.63%.

In the case of `CC(C)(C)c1cc(/C=N/O)cc(C(C)(C)C)c1O`, the inhibition was 29.7%.

In the case of `N=c1c2c(n(Cc3ccc(Cl)cc3)c3c1CCC3)CCC2`, the inhibition was 26%.

In the case of `O=C(Nc1ncc(Cc2ccccc2Cl)s1)C1=NCCN1`, the inhibition was 67.9%.

On to `O=C(Oc1cccc2c(O)cccc12)c1ccccc1`, for which the inhibition was found to be 45.1%.

`O=C(Nc1cc(S(=O)(=O)N2CCCCC2)ccc1Cl)c1ccccc1NS(=O)(=O)c1ccc(F)cc1`: the inhibition was 22%.

Consider `CCC(C)c1ccc(NC(=S)Nc2ccc(OC)c(OC)c2)cc1` (stereo not given), for which the inhibition turned out to be 4.7%.

With `CCN1CCN(CCNC(=O)c2ccc(/C=C3/Sc4ccccc4N(Cc4ccccc4C)C3=O)cc2)CC1`, the inhibition was 22.1%.

Consider `Cc1ccc(NC(=S)NCCc2ccccc2)c(C)c1`, for which the inhibition is 60%.

In the case of `Cc1ccc2c(c1)c1c3n2CCCN(Cc2ccccc2)C3CCC1` (stereo not given), the inhibition came to 78.1%.

Turning to `Cc1ccc2nc(N(CCCN(C)C)C(=O)CCc3ccccc3)sc2c1`, the inhibition turned out to be 91.4%.

Regarding `CC(C)Cc1cc(C(=O)N2CCN(C(c3ccccc3)c3ccccc3)CC2)no1`, the inhibition worked out at 34.2%.

Regarding `S=C(N/N=C1\CCc2ccccc21)NC1CCCCC1`, the inhibition came to 66.5%.

Turning to `O=C(O)C1CCCCC1C(=O)Nc1ccc(F)cc1F` (stereo not given), the inhibition turned out to be 9.23%.

As for `Cc1ccc(S(=O)(=O)c2nc(Nc3nccs3)sc2Cl)cc1`, the inhibition amounted to 15.7%.

Take `Cc1ccc(NC(=S)NC(C)CCc2ccccc2)cc1C` (stereo not given): the inhibition is 44.7%.

On to `NC(N)=N/N=C/c1ccc(OCc2ccccc2Cl)cc1`, for which the inhibition was determined as 60.6%.

In the case of `COc1cccc(CN2CCN(C(=S)NCc3ccc(Cl)cc3)CC2)c1`, the inhibition came out at 63.8%.

For `c1ccc2c(-c3c[nH]c4ccccc34)c3ccccc3nc2c1`, the inhibition came to 26.1%.

As to `COc1ccc(C)cc1NC(=O)c1ccccc1NS(=O)(=O)c1ccc(Cl)s1`, the inhibition is 70.8%.

For the compound `Cn1cc(C(=O)c2ccc(Cl)cc2Cl)cc1C(=O)O`, the inhibition stood at 8.15%.

Turning to `COc1ccccc1NC1=C(Cl)C(=O)N(C2CCCCC2)C1=O`, the inhibition stood at 1.23%.

Turning to `S=C(Nc1ccccc1Cl)N(Cc1ccccc1)Cc1ccccn1`, the inhibition stood at 24.2%.

In the case of `Cc1[nH][nH]c(=O)c1C(c1c(C)[nH][nH]c1=O)c1cn(Cc2ccccc2Cl)c2ccccc12`, the inhibition turned out to be 6.08%.

Take `O=c1cc(C(Cl)(Cl)Cl)oc2c1ccc1ccccc12`: the inhibition was 54.2%.

`CCN(CC)S(=O)(=O)c1cnccc1N1CCN(c2cccc(Cl)c2)CC1`: the inhibition was 16.5%.

As to `COc1cc(C(=O)OC2CC3CCC2(C)C3(C)C)ccc1OC(C)=O` (stereo not given), the inhibition stood at 23.1%.

Regarding `S=C(NCc1ccco1)N1CCN(C(c2ccccc2)c2ccccc2)CC1`, the inhibition was 15%.

For `CCOCC(=O)Nc1cc(C(F)(F)F)ccc1Oc1cccc(Br)c1`, the inhibition was determined as 19.6%.

The values are drawn from PubChem BioAssay AID1362 (SRMLSC, 2008).
